Results published in PubChem BioAssay AID624417 (National Center for Advancing Translational Sciences (NCATS), 2012).
Several values for one entry are separate records, joined by “and”; a condition that tells them apart may be missing. Equal values may be shown once. The campaign covered roughly 410,000 compounds. About 6,400 (1.6%) were called active. The inconclusive results got no clear call from the source; some entries with a clear call stand among them for comparison. Calls come from the whole dose curve; as a rule, active = well fitted inhibition curve with a large enough effect; inconclusive = small, poorly fitted or top-dose-only effect; inactive = no such curve, though single readings can be large or run the other way. A potency beside an inconclusive call is a rough fit, not a confirmed value.

The molecules below were run against Glucagon-like peptide 1 receptor (Homo sapiens) (UniProt P43220) (assay: qHTS of GLP-1 Receptor Inverse Agonists (Inhibition Mode)). Details: HEK293 GLP-1R CRE-luciferase, luminescence, 24 h, GLP-1R form is constitutively active; activity change, negative = inhibition: at 38.3 µM (top of the series) unless noted.
Sequence of UniProt P43220 (P43220 whole entry, looked up): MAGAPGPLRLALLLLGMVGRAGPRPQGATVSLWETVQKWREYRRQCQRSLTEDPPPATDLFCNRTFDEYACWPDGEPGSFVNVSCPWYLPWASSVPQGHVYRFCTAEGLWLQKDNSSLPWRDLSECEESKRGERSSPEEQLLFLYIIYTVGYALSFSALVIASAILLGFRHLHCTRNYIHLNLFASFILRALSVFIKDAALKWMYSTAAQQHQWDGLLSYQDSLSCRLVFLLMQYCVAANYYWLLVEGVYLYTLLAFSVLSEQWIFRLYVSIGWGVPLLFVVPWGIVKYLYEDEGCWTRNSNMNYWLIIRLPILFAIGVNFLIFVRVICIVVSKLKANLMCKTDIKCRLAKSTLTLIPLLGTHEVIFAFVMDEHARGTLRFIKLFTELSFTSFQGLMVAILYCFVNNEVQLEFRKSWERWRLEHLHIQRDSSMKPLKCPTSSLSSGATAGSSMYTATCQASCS
Method in brief: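 HEK293 cells stably co-expressing a cAMP-responsive luciferase reporter and constitutively active GLP-1R were seeded, incubated 12 h, then exposed to compounds for 24 h at 37 C. Luminescence was read 12 min after detection reagent; inverse agonists lower signal.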
% is set by controls: 0 for no effect and ±100 for the full control effect; potency is the fitted concentration of half-maximal effect; tags give direction and shape of the fitted curve.
Note: nearly all actives have a fitted effect of over 55% in size.

Potency, active:
Cc1ccc(CSCc2nnc(SCC(=O)N3CCN(c4ccccc4)CC3)n2C)cc1 7.94 µM
CN(C)CCCN(C(=O)c1ccco1)c1nc2ccc(Br)cc2s1 3.16 µM

Potency, inconclusive:
O=C1NC2(CCCCCC2)C(=O)N1Cc1ccccc1Cl 17.8 µM [inhibitor, partial curve, poor fit]
O=C(CN1C(=O)CSc2ccc(C(F)(F)F)cc21)Nc1ccccc1 10 µM [inhibitor, single point]
C[C@H](CO)N1C[C@H](C)[C@@H](CN(C)C(=O)Nc2ccc(C(F)(F)F)cc2)Oc2c(NC(=O)CCC(F)(F)F)cccc2C1=O 28.2 µM [inhibitor, single point]
COc1ccc(C(C)NC(=O)Cc2ccc(Br)cc2)cc1 (configuration not stated) 28.2 µM [inhibitor, single point]
O=C(NCc1ccccc1Cl)c1cnc(N2CCCCC2)c2ccccc12 10 µM [inhibitor, partial curve, poor fit]
Cc1c(CN2CCN(C)C(CCO)C2)[nH]c2c(Cl)cccc12 (configuration not stated) 14.1 µM [inhibitor, partial curve, poor fit]
CCN(C(=O)Cn1c(SCC(=O)NCc2ccccc2)nc2ccccc21)c1cccc(C)c1 12.6 µM [inhibitor, single point]
Cc1cccn2c(Nc3ccc4c(c3)OCCO4)c(-c3ccc(Br)o3)nc12 28.2 µM [inhibitor, single point]
O=C(c1cccc(OC2CCN(Cc3cc(F)cc(F)c3)CC2)c1)N1CCCC1 11.2 µM [inhibitor, partial curve, poor fit]
Nc1c(S(=O)(=O)c2cccs2)c2nc3ccccc3nc2n1/N=C/c1cccc(O)c1 28.2 µM [inhibitor, single point]
Cc1cccc2cc3c(nc12)SC(=NCC1CCCO1)N(Cc1ccco1)C3 (configuration not stated) 11.2 µM [inhibitor, partial curve, poor fit]
Cc1cccc2nc(CSC(=N)N)c(Br)n12 6.31 µM [inhibitor, partial curve, poor fit]
CC1SCC(NC(=O)c2cccc(Cl)c2)CS1 (configuration not stated) 28.2 µM [inhibitor, single point]
O=C(NCCc1ccccc1)C1CCCN(S(=O)(=O)c2cccc3nonc23)C1 (configuration not stated) 8.91 µM [inhibitor, partial curve]
COc1ccccc1NC(=O)c1ccc(NC(=O)CN2CCCCC2)cc1 28.2 µM [inhibitor, single point]
CCOC(=O)c1ccc(Cn2c(-c3ccccc3)nnc2-c2ccccc2)o1 31.6 µM [inhibitor, single point]
Cc1ccccc1S(=O)(=O)Nc1nc2ccccc2nc1N1CCc2ccccc2C1 3.55 µM [inhibitor, partial curve, poor fit]
Cc1cccc(NC(=S)N(CCCN2CCOCC2)C(C)c2cc3ccccc3o2)c1C (configuration not stated) 8.91 µM [inhibitor, partial curve, poor fit]
Cc1cccc(CSCc2ccc(C(=O)NCC3CCCO3)o2)c1 (configuration not stated) 11.2 µM [inhibitor, single point]
CCn1cc(CN2CCc3c([nH]c4ccccc34)C2c2cccc(O)c2)c(C)n1 (configuration not stated) 14.1 µM [inhibitor, partial curve, poor fit]
CCc1ncc(CN2CCCC(C(=O)Nc3cccc(-c4cccc(C)c4)c3)C2)cn1 (configuration not stated) 14.1 µM [inhibitor, partial curve, poor fit]
c1ccc(Cn2c(-c3ccccc3)c[n+]3c2SCCC3)cc1 3.98 µM [inhibitor, full curve, poor fit]
CC1(C)CC(=O)C(N=Nc2cccc([N+](=O)[O-])c2)=C(O)C1 31.6 µM [inhibitor, single point]
CCc1ccc(-c2cc(C)no2)cc1S(=O)(=O)Nc1ccc(Cl)cn1 6.31 µM [inhibitor, partial curve, poor fit]
Cc1ccc(Cn2cc(C(=O)c3ccc(C)cc3)c(=O)c3ccc(C)nc32)cc1 12.6 µM [inhibitor, single point]
COc1ccc(N(CC(=O)NCCSc2ccccn2)S(=O)(=O)c2ccccc2)cc1Cl 28.2 µM [inhibitor, single point]
COc1cccc(NC(=O)c2nc(S(C)(=O)=O)ncc2Cl)c1 28.2 µM [inhibitor, single point]
COc1cccc(-c2nnc(NC(=O)c3ccc(Cl)s3)o2)c1 12.6 µM [inhibitor, partial curve, poor fit]
NNC(=S)Nc1ccc(C(F)(F)F)cc1Cl 28.2 µM [inhibitor, single point]
O=C(Nc1ccccc1Cl)C1CCN(Cc2cnn(-c3ccccc3)c2-n2cccc2)CC1 2.51 µM [inhibitor, full curve, poor fit]
Cc1ccc(C)c(NS(=O)(=O)c2c(C)ccc3nsnc23)c1 28.2 µM [inhibitor, single point]
CC(OC(=O)CC(NC(=O)c1ccccc1Cl)c1ccccc1)C(=O)Nc1cccc(Cl)c1Cl (configuration not stated) 12.6 µM [inhibitor, partial curve, poor fit]
CC1(C)CC(=O)c2cnc(N3CCc4ccccc43)nc2C1 7.94 µM [inhibitor, partial curve, poor fit]
C=CCN(C(=O)CN1CCOCC1)c1nc(C)c(-c2ccccc2)s1 15.8 µM [inhibitor, single point]
COc1ccccc1NC(CC(=O)c1ccccc1)C(=O)OCC(=O)c1ccc(F)cc1 (configuration not stated) 10 µM [inhibitor, single point]
CCN(CC)c1ccc(NC(=O)c2ccc3c(c2)OCO3)c(C)c1 5.62 µM [inhibitor, full curve, poor fit]
CCc1ccc(NC(=O)CC2C(=O)N(c3ccc(C)cc3)C(=O)N2CCc2ccncc2)cc1 (configuration not stated) 11.2 µM [inhibitor, partial curve, poor fit]
O=C1C2=C(Nc3ccccc3SC2c2ccc(Cl)c(Cl)c2)c2ccccc21 (configuration not stated) 14.1 µM [inhibitor, partial curve, poor fit]
CCOc1cc(CNCc2cccs2)ccc1OCC(=O)NC(C)(C)C 15.8 µM [inhibitor, partial curve, poor fit]
COc1cccc(NC(=O)CN2C(=O)COc3ccc(S(=O)(=O)N4CCCCCC4)cc32)c1 12.6 µM [inhibitor, partial curve, poor fit] and 25.1 µM [inhibitor, single point]
O=C(NNC(=O)C1[C@H]2CCCC[C@@H]12)Nc1cccc2ccccc12 (some centres not stated) 12.6 µM [inhibitor, partial curve, poor fit]
CCC(C(=O)NCCC1=CCCCC1)n1nc(C)c2c(C)n(-c3ccccc3)nc2c1=O (configuration not stated) 12.6 µM [inhibitor, partial curve, poor fit]
COc1ccccc1Cn1c(CNS(=O)(=O)c2ccc(CC(C)C)cc2)nc2cccnc21 28.2 µM [inhibitor, single point]
COc1ccc(CCN(C)Cc2ccc(OC)c(OCc3ccccc3)c2)cc1OC 28.2 µM [inhibitor, single point]
CCN(CC)S(=O)(=O)c1cccc(C(=O)Oc2cccc(NC(=O)c3cccs3)c2)c1 28.2 µM [inhibitor, single point]
CC1CCC(NC(=O)CCn2ccc3cc(S(=O)(=O)N4CCCC4)ccc32)CC1 (configuration not stated) 12.6 µM [inhibitor, single point]
COc1cccc(N2CCN(C3OC(=O)c4ccccc43)CC2)c1 (configuration not stated) 10 µM [inhibitor, single point]

Activity change, negative = inhibition, inactive:
CC1CCC/C(=C\Nc2ccccc2C(=O)O)C1=O (configuration not stated) 10.3%
COc1ccc(-c2[nH][nH]c(=O)c2NC(=O)c2ccc(C)cc2)cc1 5.11%
O=c1ccc(Br)c[nH]1 6.81%
O=C(Nc1cccc(Cl)c1Cl)c1cc2nc(-c3ccc4c(c3)OCO4)cc(C(F)(F)F)n2n1 4.79%
COc1ccc(-c2cc3ccc(O)c(CN4CCN(CCO)CC4)c3oc2=O)cc1OC -10.3%
COc1ccc(CC(N)c2csc(NC(=O)NC(c3ccccc3)c3ccccc3)n2)cc1 (configuration not stated) -7.52%
Cn1c(C(=O)NCc2ccc(F)cc2)cc2cc(S(=O)(=O)N3CCCCC3)ccc21 2.07%
COc1ccc(C2=NN(c3nc(C(=O)O)cs3)C(O)(C(F)(F)F)C2)c(OC)c1 (configuration not stated) 44.1%
N#CC1(NC(=O)COC(=O)c2ccc(Cl)nc2)CCCCC1 6.92%
CC(C)NS(=O)(=O)c1ccc(NC(=O)Cc2ccsc2)cc1 14.8%
Cc1cccc(N2CCN(C(=O)C3CCN(Cc4nc(-c5ccc(Cl)cc5)oc4C)CC3)CC2)c1C 6.78%
Cc1ccc2c(c1)[C@@H]1[C@H](CO2)[C@H](c2ccccc2)[C@@]2(C)C(=O)N[C@H](C)C(=O)N12 -2.01%
COc1ccc(NC(=O)N(C(C)C)C2CCN(C(C)=O)CC2)c(OC)c1 -5.09%
